# This is one part of the list.
# System: HSkMC (human skeletal muscle cells)
# Assay: cytotoxicity call (relative viability < 0.9)
# Conditions: 10 µM
row,SMILES,cytotoxicity call
1,C[C@H]1CN([C@@H](C)CO)C(=O)CCCn2cc(nn2)CO[C@@H]1CN(C)C(=O)Nc1ccc(C(C)(C)C)cc1,inactive
2,C[C@@H]1CCCCO[C@H](CN(C)S(=O)(=O)c2cn(C)cn2)[C@H](C)CN([C@@H](C)CO)C(=O)c2cc(NC(=O)CCCN(C)C)ccc2O1,inactive
3,C[C@H](CO)N1C[C@H](C)[C@@H](CN(C)Cc2ccncc2)Oc2ccc(NS(=O)(=O)c3ccc(F)cc3)cc2C1=O,inactive
4,C(=C\c1ccccc1)/CSc1ncnc2c1oc1ccccc12,inactive

# System: HepG2
# Assay: cytotoxicity call (relative viability < 0.9)
# Conditions: 10 µM
row,SMILES,cytotoxicity call
1,Cc1ccc(S(=O)(=O)Nc2ccc3c(c2)CC(=O)N([C@H](C)CO)C[C@H](C)[C@H](CN(C)Cc2ccc(C(F)(F)F)cc2)O3)cc1,active
2,C[C@@H]1CN([C@H](C)CO)C(=O)c2cc(NC(=O)CCC(F)(F)F)ccc2O[C@@H](C)CCCCO[C@H]1CN(C)C(=O)c1ccccc1,inactive
3,CN(CC(=O)NC1CCCCC1)S(C)(=O)=O,inactive
4,O=C(C[C@H]1CC[C@@H]2[C@H](COC[C@H](O)CN2C(=O)c2ccncc2)O1)NC1CCC1,inactive
5,CCOC(=O)Cc1c(C)[nH]c(SC)nc1=O,inactive
6,COCCC(=O)N1CC[C@]2(CCOC2)C1,inactive
7,CC(=O)N(C)C[C@@H]1Oc2cc(C#CCN(C)C)ccc2S(=O)(=O)N([C@@H](C)CO)C[C@@H]1C,inactive
8,S=C1NCN(CCc2ccccc2)CN1,inactive
9,C[C@@H]1CCCCO[C@@H](CN(C)Cc2ccncc2)[C@H](C)CN([C@H](C)CO)C(=O)c2cc(NC(=O)CCC(F)(F)F)ccc2O1,inactive
10,COc1ccc(NC(=O)N(C)C[C@H]2OCCCC[C@@H](C)Oc3ccc(NC(=O)c4ccncc4)cc3C(=O)N([C@H](C)CO)C[C@@H]2C)cc1,inactive
11,C[C@H]1CN([C@@H](C)CO)C(=O)Cc2cc(NC(=O)CCC(F)(F)F)ccc2O[C@@H]1CN(C)Cc1ccc(-c2ccccc2)cc1,active
12,OC[C@H]1O[C@H](O)[C@H](O)[C@@H](O)[C@@H]1O,inactive
13,C[C@H]1CN([C@@H](C)CO)C(=O)CCCn2cc(nn2)CO[C@H]1CN(C)S(=O)(=O)c1ccc(Cl)cc1,inactive
14,COc1ccccc1CNC(=O)C[C@H]1CC[C@@H]2[C@H](COC[C@@H](O)CN2C(=O)Nc2ccc(F)cc2)O1,inactive
15,C[C@H]1CN([C@@H](C)CO)C(=O)c2cccc(NC(=O)c3ccc(-c4nccs4)cc3)c2O[C@@H]1CN(C)C(=O)Nc1ccccc1,inactive
16,Cc1noc(C)c1NC(=O)N(C)C[C@@H]1OCCCC[C@@H](C)Oc2ccc(NS(=O)(=O)c3cccs3)cc2C(=O)N([C@H](C)CO)C[C@@H]1C,inactive

row,SMILES,cytotoxicity call
1,CCS(=O)(=O)NCC[C@@H]1CC[C@@H](NC(=O)Cc2ccccn2)[C@H](CO)O1,inactive
2,C[C@H](CO)N1C[C@H](C)[C@H](CN(C)C(=O)C2CCCCC2)OCCCC[C@H](C)Oc2ccc(NC(=O)Nc3ccc4c(c3)OCO4)cc2C1=O,inactive
3,CN[C@H](CC(=O)O)C(=O)O,inactive
4,Cl.Fc1ccc(C2CCNCC2COc2ccc3c(c2)OCO3)cc1 (stereo not given),inactive
5,CSC1=NCCN1,inactive
6,O=C(O)CCCN=C1NC(=O)CC(=O)N1,inactive
7,Cc1ccc(CSc2ncc(C(F)(F)F)cc2Cl)cc1,inactive
8,CO[C@@H]1CN(C)C(=O)c2cc(NC(=O)C3CCOCC3)ccc2OC[C@@H](C)N(C(=O)Nc2ccc(C(F)(F)F)cc2)C[C@H]1C,inactive
9,CC(C)NC(=O)N(C)C[C@H]1Oc2c(NC(=O)NC3CCCCC3)cccc2C(=O)N([C@@H](C)CO)C[C@H]1C,inactive
10,Cc1noc(C)c1S(=O)(=O)N(C)C[C@H]1Oc2ccc(NS(=O)(=O)c3cn(C)cn3)cc2CC(=O)N([C@@H](C)CO)C[C@@H]1C,inactive
11,C[C@H](NC(=O)C[C@@H]1C[C@H]2c3cc(NC(=O)Nc4ccc(C(F)(F)F)cc4)ccc3O[C@H]2[C@H](CO)O1)c1ccccc1,inactive
12,CS(=O)(=O)N1C[C@H]2COC[C@@]2(C(=O)NCc2ccccn2)C1,inactive
13,Cn1cnc(S(=O)(=O)N2C[C@H](O)COC[C@@H]3O[C@H](CC(=O)NCc4cccc(F)c4)CC[C@H]32)c1,inactive
14,Cc1noc(C)c1NC(=O)Nc1ccc2c(c1)C(=O)N([C@@H](C)CO)C[C@@H](C)[C@@H](CN(C)S(=O)(=O)c1ccccc1)O2,inactive
15,COCC#Cc1ccc([C@H]2[C@@H](CO)N3C(=O)CN(C(=O)c4cccnc4)C[C@@H]23)cc1,inactive
